{"source": "paper PMC9911399", "about": "“Two distinct binding modes provide the RNA-binding protein RbFox with extraordinary sequence specificity”", "binders": {"B1": {"name": "AGAUAGA (DNA:RNA)", "RNA": "GGGAGACCGGAAUUCAGAUUGUCCAGAUAGAUUAAAUCCCGUCGUAGCCACCA", "DNA 1": "CAATCTGAATTCCGGTCTCCC", "DNA 2": "TGGTGGCTACGACGGGATT"}, "B2": {"name": "UGUACGG (DNA:RNA)", "RNA": "B1 RNA with A25U, A27U, U28A, A29C, A31G", "DNA 1": "CAATCTGAATTCCGGTCTCCC", "DNA 2": "TGGTGGCTACGACGGGATT"}, "B3": {"name": "UAUCACA (DNA:RNA)", "RNA": "B1 RNA with A25U, G26A, A27U, U28C, G30C", "DNA 1": "CAATCTGAATTCCGGTCTCCC", "DNA 2": "TGGTGGCTACGACGGGATT"}, "B4": {"name": "GUAACUC (DNA:RNA)", "RNA": "B1 RNA with A25G, G26U, U28A, A29C, G30U, A31C", "DNA 1": "CAATCTGAATTCCGGTCTCCC", "DNA 2": "TGGTGGCTACGACGGGATT"}, "B5": {"name": "AGACAAU (DNA:RNA)", "RNA": "B1 RNA with U28C, G30A, A31U", "DNA 1": "CAATCTGAATTCCGGTCTCCC", "DNA 2": "TGGTGGCTACGACGGGATT"}, "B6": {"name": "AACGGGU (DNA:RNA)", "RNA": "B1 RNA with G26A, A27C, U28G, A29G, A31U", "DNA 1": "CAATCTGAATTCCGGTCTCCC", "DNA 2": "TGGTGGCTACGACGGGATT"}, "B7": {"name": "UCGUAGG (DNA:RNA)", "RNA": "B1 RNA with A25U, G26C, A27G, A31G", "DNA 1": "CAATCTGAATTCCGGTCTCCC", "DNA 2": "TGGTGGCTACGACGGGATT"}, "B8": {"name": "CCCGUAA (DNA:RNA)", "RNA": "B1 RNA with A25C, G26C, A27C, U28G, A29U, G30A", "DNA 1": "CAATCTGAATTCCGGTCTCCC", "DNA 2": "TGGTGGCTACGACGGGATT"}, "B9": {"name": "AGUUGCA (DNA:RNA)", "RNA": "B1 RNA with A27U, A29G, G30C", "DNA 1": "CAATCTGAATTCCGGTCTCCC", "DNA 2": "TGGTGGCTACGACGGGATT"}, "B10": {"name": "CGUGACC (DNA:RNA)", "RNA": "B1 RNA with A25C, A27U, U28G, G30C, A31C", "DNA 1": "CAATCTGAATTCCGGTCTCCC", "DNA 2": "TGGTGGCTACGACGGGATT"}, "B11": {"name": "UUCGCCA (DNA:RNA)", "RNA": "B1 RNA with A25U, G26U, A27C, U28G, A29C, G30C", "DNA 1": "CAATCTGAATTCCGGTCTCCC", "DNA 2": "TGGTGGCTACGACGGGATT"}, "B12": {"name": "ACACGUA (DNA:RNA)", "RNA": "B1 RNA with G26C, U28C, A29G, G30U", "DNA 1": "CAATCTGAATTCCGGTCTCCC", "DNA 2": "TGGTGGCTACGACGGGATT"}, "B13": {"name": "AUUCCGA (DNA:RNA)", "RNA": "B1 RNA with G26U, A27U, U28C, A29C", "DNA 1": "CAATCTGAATTCCGGTCTCCC", "DNA 2": "TGGTGGCTACGACGGGATT"}, "B14": {"name": "ACUCACU (DNA:RNA)", "RNA": "B1 RNA with G26C, A27U, U28C, G30C, A31U", "DNA 1": "CAATCTGAATTCCGGTCTCCC", "DNA 2": "TGGTGGCTACGACGGGATT"}, "B15": {"name": "UGACGCC (DNA:RNA)", "RNA": "B1 RNA with A25U, U28C, A29G, G30C, A31C", "DNA 1": "CAATCTGAATTCCGGTCTCCC", "DNA 2": "TGGTGGCTACGACGGGATT"}, "B16": {"name": "GACUAAG (DNA:RNA)", "RNA": "B1 RNA with A25G, G26A, A27C, G30A, A31G", "DNA 1": "CAATCTGAATTCCGGTCTCCC", "DNA 2": "TGGTGGCTACGACGGGATT"}, "B17": {"name": "UAUUAGA (DNA:RNA)", "RNA": "B1 RNA with A25U, G26A, A27U", "DNA 1": "CAATCTGAATTCCGGTCTCCC", "DNA 2": "TGGTGGCTACGACGGGATT"}, "B18": {"name": "ACUCUGU (DNA:RNA)", "RNA": "B1 RNA with G26C, A27U, U28C, A29U, A31U", "DNA 1": "CAATCTGAATTCCGGTCTCCC", "DNA 2": "TGGTGGCTACGACGGGATT"}, "B19": {"name": "UUAUCGA (DNA:RNA)", "RNA": "B1 RNA with A25U, G26U, A29C", "DNA 1": "CAATCTGAATTCCGGTCTCCC", "DNA 2": "TGGTGGCTACGACGGGATT"}, "B20": {"name": "UCCGUCG (DNA:RNA)", "RNA": "GGGAGACCGGAAUUCAGAUUGUCCUCCGUCGUUAAAUCCCGUCGUAGCCACCA", "DNA 1": "CAATCTGAATTCCGGTCTCCC", "DNA 2": "TGGTGGCTACGACGGGATT"}, "B21": {"name": "UACAUUC (DNA:RNA)", "RNA": "B20 RNA with C26A, G28A, C30U, G31C", "DNA 1": "CAATCTGAATTCCGGTCTCCC", "DNA 2": "TGGTGGCTACGACGGGATT"}, "B22": {"name": "ACUCUAA (DNA:RNA)", "RNA": "B1 RNA with G26C, A27U, U28C, A29U, G30A", "DNA 1": "CAATCTGAATTCCGGTCTCCC", "DNA 2": "TGGTGGCTACGACGGGATT"}, "B23": {"name": "GUCCCAC (DNA:RNA)", "RNA": "B20 RNA with U25G, C26U, G28C, U29C, C30A, G31C", "DNA 1": "CAATCTGAATTCCGGTCTCCC", "DNA 2": "TGGTGGCTACGACGGGATT"}, "B24": {"name": "CCCGCCU (DNA:RNA)", "RNA": "B20 RNA with U25C, U29C, G31U", "DNA 1": "CAATCTGAATTCCGGTCTCCC", "DNA 2": "TGGTGGCTACGACGGGATT"}, "B25": {"name": "GCUCAGC (DNA:RNA)", "RNA": "B1 RNA with A25G, G26C, A27U, U28C, A31C", "DNA 1": "CAATCTGAATTCCGGTCTCCC", "DNA 2": "TGGTGGCTACGACGGGATT"}, "B26": {"name": "GGAUAAU (DNA:RNA)", "RNA": "B1 RNA with A25G, G30A, A31U", "DNA 1": "CAATCTGAATTCCGGTCTCCC", "DNA 2": "TGGTGGCTACGACGGGATT"}, "B27": {"name": "GGUCUAU (DNA:RNA)", "RNA": "B1 RNA with A25G, A27U, U28C, A29U, G30A, A31U", "DNA 1": "CAATCTGAATTCCGGTCTCCC", "DNA 2": "TGGTGGCTACGACGGGATT"}, "B28": {"name": "CGAGCAG (DNA:RNA)", "RNA": "B1 RNA with A25C, U28G, A29C, G30A, A31G", "DNA 1": "CAATCTGAATTCCGGTCTCCC", "DNA 2": "TGGTGGCTACGACGGGATT"}, "B29": {"name": "AAUUUAC (DNA:RNA)", "RNA": "B1 RNA with G26A, A27U, A29U, G30A, A31C", "DNA 1": "CAATCTGAATTCCGGTCTCCC", "DNA 2": "TGGTGGCTACGACGGGATT"}, "B30": {"name": "AACGCUU (DNA:RNA)", "RNA": "B20 RNA with U25A, C26A, U29C, C30U, G31U", "DNA 1": "CAATCTGAATTCCGGTCTCCC", "DNA 2": "TGGTGGCTACGACGGGATT"}, "B31": {"name": "CCGACGU (DNA:RNA)", "RNA": "B1 RNA with A25C, G26C, A27G, U28A, A29C, A31U", "DNA 1": "CAATCTGAATTCCGGTCTCCC", "DNA 2": "TGGTGGCTACGACGGGATT"}}, "note": "Numbering of substitutions follows the chain as printed; changes in the protein carry UniProt numbers. This is one part of the list."}
{"molecular_target": "T1, RBFOX1 RRM (Homo sapiens, UniProt Q9NWB1 109-208)", "T1 sequence": "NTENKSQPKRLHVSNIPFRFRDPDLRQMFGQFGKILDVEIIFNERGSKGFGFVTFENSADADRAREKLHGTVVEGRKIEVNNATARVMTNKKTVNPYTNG", "test": "EMSA; HiTS-Eq, 1 nM pool, 10 min; buffer printed only for the single-RNA assays: 10 mM Tris pH 7.5, 150 mM NaCl, 3.4 mM EDTA, 0.001% NP-40, 30 C", "conditions": "tags: His6 N-terminal (pET28a); label: 5' 32P", "how_it_was_run": "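Relative association constants, normalised to the cognate motif, were derived by comparing read counts of each RNA species with those of the control reaction. The RNA sequenced was the free fraction, separated by 8% native PAGE after a 10 min equilibration in 50 µL of 1 nM 5′-radiolabelled RNA (7 randomized nucleotides) with increasing concentrations of purified wild-type or mutant RbFox RRM.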"}
{"binder": "B1", "binding signal": "0.00849 KA relative to UGCAUGU"}
{"binder": "B2", "binding signal": "0.0102 KA relative to UGCAUGU"}
{"binder": "B3", "binding signal": "0.000592 KA relative to UGCAUGU"}
{"binder": "B4", "binding signal": "0.0108 KA relative to UGCAUGU"}
{"binder": "B5", "binding signal": "0.00455 KA relative to UGCAUGU"}
{"binder": "B6", "binding signal": "0.011 KA relative to UGCAUGU"}
{"binder": "B7", "binding signal": "0.00965 KA relative to UGCAUGU"}
{"binder": "B8", "binding signal": "0.000282 KA relative to UGCAUGU"}
{"binder": "B9", "binding signal": "0.0173 KA relative to UGCAUGU"}
{"binder": "B10", "binding signal": "0.0102 KA relative to UGCAUGU"}
{"binder": "B11", "binding signal": "0.00715 KA relative to UGCAUGU"}
{"binder": "B12", "binding signal": "0.00218 KA relative to UGCAUGU"}
{"binder": "B13", "binding signal": "0.0045 KA relative to UGCAUGU"}
{"binder": "B14", "binding signal": "0.000373 KA relative to UGCAUGU"}
{"binder": "B15", "binding signal": "0.011 KA relative to UGCAUGU"}
{"binder": "B16", "binding signal": "0.0138 KA relative to UGCAUGU"}
{"binder": "B17", "binding signal": "0.0159 KA relative to UGCAUGU"}
{"binder": "B18", "binding signal": "0.00745 KA relative to UGCAUGU"}
{"binder": "B19", "binding signal": "0.00877 KA relative to UGCAUGU"}
{"binder": "B20", "binding signal": "0.0147 KA relative to UGCAUGU"}
{"binder": "B21", "binding signal": "0.00373 KA relative to UGCAUGU"}
{"binder": "B22", "binding signal": "0.00112 KA relative to UGCAUGU"}
{"binder": "B23", "binding signal": "0.00365 KA relative to UGCAUGU"}
{"binder": "B24", "binding signal": "0.0125 KA relative to UGCAUGU"}
{"binder": "B25", "binding signal": "0.011 KA relative to UGCAUGU"}
{"binder": "B26", "binding signal": "0.0114 KA relative to UGCAUGU"}
{"binder": "B27", "binding signal": "0.00632 KA relative to UGCAUGU"}
{"binder": "B28", "binding signal": "0.0104 KA relative to UGCAUGU"}
{"binder": "B29", "binding signal": "0.00288 KA relative to UGCAUGU"}
{"binder": "B30", "binding signal": "0.00309 KA relative to UGCAUGU"}
{"binder": "B31", "binding signal": "0.0055 KA relative to UGCAUGU"}
